From PubChem BioAssay AID624171 (National Center for Advancing Translational Sciences (NCATS), 2012)
Screen size: about 410,000 compounds; about 1,200 (0.29%) were called active. The shares of active, inactive and inconclusive entries below differ from those in the screen. Calls come from the whole dose curve; as a rule, active = well fitted activation curve with a large enough effect; inconclusive = small, poorly fitted or top-dose-only effect; inactive = flat fitted curve, though single readings scatter. A potency beside an inconclusive call is a rough fit, not a confirmed value.

Assay: qHTS of Nrf2 Activators; note: nearly all actives have a fitted effect of over 65% in size; for activation: % of control where 0% means no effect
Details: AREc32 ARE-luciferase reporter (MCF7-derived line), luminescence, 24 h; activation: at 46.1 µM (top of the series)
Outline: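 Luciferase luminescence (Steady-Glo, 30 min at room temperature) served as the read-out of ARE activation in AREc32 cells treated with compounds for 24 hr at 37 deg C.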
Potency is the fitted concentration of half-maximal effect; tags give direction and shape of the fitted curve.

Structure (SMILES)	Potency	activation
CN(C(=O)CSc1nnc(-c2ccc(F)cc2)c2ccccc12)C1CCS(=O)(=O)C1 (configuration not stated)	inconclusive: 35.5 µM [activator, partial curve, poor fit]	–
CCN(CC)CCCn1c2c(c(SCC(=O)Nc3nc4ccccc4s3)nc1=O)CCC2	inconclusive: 28.2 µM [activator, single point]	–
COc1cc2c(cc1/C=C1/NC(=O)N(c3ccccc3)C1=O)OCO2	inconclusive: 11.2 µM [activator, partial curve, poor fit]	–
O=[N+]([O-])c1ccc(Cl)c(/C=N/n2c(COc3ccccc3)n[nH]c2=S)c1	inconclusive: 2.82 µM [activator, partial curve, poor fit]	–
Cc1cccc(C)c1OCC(=O)Nc1ccccc1C(F)(F)F	–	inactive: -0.843%
O=C(COC(=O)c1cc(S(=O)(=O)N2CCCC2)ccc1O)Nc1ccc(SC(F)F)cc1	–	inactive: -0.0242%
O=C(CN1CCCN(S(=O)(=O)c2ccc(Br)cc2)CC1)Nc1cccc(C(F)(F)F)c1	–	inactive: 7.06%
COc1cc2c(cc1NC(=O)CSc1ccccn1)oc1ccccc12	inconclusive: 2.82 µM [activator, partial curve, poor fit]	–
O=C(CN1CCN(Cc2ccccc2Cl)CC1)N/N=C/C=C/c1ccco1	inconclusive: 6.31 µM [activator, partial curve, poor fit]	–
COC(=O)c1ccc2c(=O)[nH]c(CCl)nc2c1	inconclusive: 22.4 µM [activator, single point]	–
O=C(Oc1ccc(Br)cc1C(=O)/C=C/c1ccccc1F)c1ccco1	inconclusive: 3.16 µM [activator, single point]	–
CCn1c(CNC(C)=O)nnc1SCC(=O)c1ccc(Br)cc1	inconclusive: 31.6 µM [activator, single point]	–
Cc1cc(C)c2c(N)c(C(=O)c3cccc(Cl)c3)sc2n1	inconclusive: 5.62 µM [activator, partial curve]	–
NS(=O)(=O)c1ccc(N=Nc2c[nH]c(=O)c(O)c2)cc1	–	inactive: 23.7%
Cc1ccc(/C=C2\CCOC2=O)cc1	–	inactive: 5.31%
C=CCN1C(c2ccccc2)=CS/C1=C(\C#N)c1nnc2n1CCCCC2	–	inactive: 0.379%
N#CCSc1nccc(-c2cc(Cl)sc2Cl)n1	active: 7.94 µM	–
Cc1c(Cl)cccc1NC(=O)CNS(=O)(=O)c1cccs1	–	inactive: -1.13%
Cc1ccc2nc(-c3cccc(Br)c3)c(Cc3cccc(Cl)c3)n2c1	inconclusive: 12.6 µM [activator, single point]	–
Cc1ccc(Cl)cc1NC(=S)N(Cc1cccnc1)Cc1ccccc1Cl	–	inactive: -0.202%
CCCCCCn1c(=O)c(-c2ccccc2)c(O)c2ccccc21	–	inactive: -0.738%
O=C(/C=C/c1ccco1)Nc1cccc(NC(=O)/C=C/c2ccco2)n1	inconclusive: 15.8 µM [activator, partial curve, poor fit]	–
Cc1ccnc(NC(=O)c2ccc([N+](=O)[O-])o2)c1	inconclusive: 20 µM [activator, partial curve, poor fit]	–
O=C(Nc1ccccc1C(F)(F)F)c1cc(-c2ccc3c(c2)OCCO3)on1	–	inactive: 1.2%

Structure (SMILES)	Potency	activation
COc1cc(OC)c2c(-c3cccc(-c4ccc(N(C)C)cc4)c3)cc(=O)oc2c1	–	inactive: 4.34%
Cc1occc1C(=O)N/N=C/C(Br)=C\c1ccccc1	active: 14.1 µM	–
NC(=O)c1ccsc1NC(=O)c1cccs1	inconclusive: 11.2 µM [activator, partial curve]	–
COc1ccccc1NC(=O)CSc1nnc(NC(=O)NC2CCCCC2)s1	–	inactive: 0.635%
Nc1nnnn1/N=C/C=C/c1ccccc1	inconclusive: 17.8 µM [activator, single point]	–
CCCCNC(=O)C(CC)(ONc1ccccc1C(F)(F)F)c1ccccc1 (configuration not stated)	inconclusive: 22.4 µM [activator, single point]	–
N#CC1=C(N)SC(N)=C(C#N)C1c1c(Cl)cccc1Cl	inconclusive: 35.5 µM [activator, single point]	–
COc1ccc(-c2cc3ccc(OC(C)C(=O)O)cc3oc2=O)cc1 (configuration not stated)	–	inactive: 0.0853%
CC1Sc2ccc(S(=O)(=O)NCCc3ccccc3)cc2NC1=O (configuration not stated)	–	inactive: 1.24%
COC(=O)C(COC(=O)c1c(F)cccc1F)NC(=O)c1c(F)cccc1F (configuration not stated)	inconclusive: 17.8 µM [activator, single point]	–
CCN(N=Nc1cccc([N+](=O)[O-])c1)c1cccc([N+](=O)[O-])c1	inconclusive: 31.6 µM [activator, single point]	–
COC(=O)c1ccc(C(=O)Nc2ccc(C(C)C)cc2N)cc1	–	inactive: 0.0857%
O=C(CCc1cn(Cc2ccccc2F)c2ccccc12)NCc1ccc(Cl)cc1	–	inactive: 2.99%
O=C(COC(=O)/C=C/c1ccco1)Nc1ccccc1	inconclusive: 22.4 µM [activator, single point]	–
C=C1C(O)[C@@H]2O[C@]3(CC[C@H](/C=C/C(C)[C@@H]4CC(C)=CC5(O[C@H](C[C@@](C)(O)CO)CCC5O)O4)O3)CC[C@H]2O[C@@H]1C(O)CC(C)[C@H]1OC2(CCCCO2)CCC1C (some centres not stated)	inconclusive: 1.12 µM [activator, full curve, poor fit]	–
O=C(/C=C/c1ccco1)NCC(=O)N/N=C/c1ccc(Cl)cc1	inconclusive: 7.94 µM [activator, partial curve]	–
CC(C)(C)NC(=O)COC(=O)c1ccccc1NC(=O)c1ccco1	inconclusive: 20 µM [activator, single point]	–
FC(F)(F)c1cc(-c2cccs2)nc(-n2cc(Cl)cn2)n1	inconclusive: 7.94 µM [activator, partial curve]	–
Cn1c(/C=C/c2ccc(Cl)cc2)c([N+](=O)[O-])c(=O)n(C)c1=O	inconclusive: 12.6 µM [activator, partial curve]	–
CCN(C(=O)C=Cc1ccco1)c1ccccc1	active: 14.1 µM	–
COc1cccc(CNC(=O)CSc2c3c(nc4ccc(Cl)cc24)CCCC3)c1OC	active: 12.6 µM	–
CNc1ccc(Br)cc(C(=O)/C=C/c2cc(OC)ccc2OC)c1=O	active: 14.1 µM	–
CCc1ccccc1NC(=O)c1ccc(OCc2c(C)noc2C)cc1	–	inactive: 0.443%
O=C1NN(c2ccccc2)C(=O)/C1=C\c1coc2ccc(O)cc2c1=O	inconclusive: 35.5 µM [activator, partial curve, poor fit]	–

Structure (SMILES)	Potency	activation
CCCC(O)(c1ccc(Cl)cc1)C(CN1CCOCC1)c1ccc(Cl)cc1 (configuration not stated)	–	inactive: 3.4%
Clc1ccc2nc(-c3ccco3)c(Cc3ccccc3)n2c1	active: 10 µM	–
CCOC(CN=c1nc(N(C)C)ss1)OCC	inconclusive: 17.8 µM [activator, partial curve, poor fit]	–
Cc1cc(O)c(C(C)C)cc1N=Cc1ccccc1O	inconclusive: 35.5 µM [activator, single point]	–
Cc1nnc2n(-c3ccccc3)c(=O)c3c4c(sc3n12)COC(C(C)C)C4 (configuration not stated)	–	inactive: -0.235%
COC(=O)c1ccccc1NC(=O)Cn1c(=O)n(CCCC(=O)NCCc2ccc(OC)c(OC)c2)c(=O)c2ccccc21	–	inactive: -0.673%
O=C(Nc1cccnc1Cl)c1cc(-c2ccco2)on1	active: 10 µM	–
Nn1c(-c2ccccc2)nc2cc(Cl)ccc2c1=O	inconclusive: 6.31 µM [activator, partial curve, poor fit]	–
CC(C)c1ccc(NC(=O)CCC(=O)NCc2ccco2)cc1	inconclusive: 17.8 µM [activator, single point]	–
Oc1ccc(-c2csc(Nc3ccc4c(c3)OCO4)n2)c(O)c1	inconclusive: 28.2 µM [activator, partial curve, poor fit]	–
CC(NC(=O)COC(=O)/C=C/c1ccco1)c1ccccc1 (configuration not stated)	active: 12.6 µM	–
COc1ccccc1Sc1nc(-c2ccccn2)ncc1OC	–	inactive: 0.47% [at 9.22 µM]
COc1ccccc1NC(=O)c1cc(Cl)nnc1Cl	inconclusive: 3.98 µM [activator, partial curve, poor fit]	–
O=[N+]([O-])c1ccc(-c2ccc(C=Nc3cccc4ccccc34)o2)cc1	–	inactive: 11.2%
Clc1cccc(-c2nc3c4ccccc4ccn3c2Cc2ccsc2)c1	inconclusive: 11.2 µM [activator, partial curve, poor fit]	–
COc1ccc2c(CNCCc3ccccc3)c(C(=O)O)n(Cc3cccc(F)c3)c2c1	–	inactive: 0.414%
COc1ccc(C(=O)/C=C/C(=O)N(CC(=O)NC2CCCCC2)CC2CCCO2)c(O)c1 (configuration not stated)	inconclusive: 35.5 µM [activator, single point]	–
Nc1ccccc1SC(CC(=O)c1ccccc1)c1ccc([N+](=O)[O-])cc1 (configuration not stated)	inconclusive: 12.6 µM [activator, single point]	–
COCCSc1nnc(NC(=O)CCS(=O)(=O)c2ccccc2)s1	inconclusive: 25.1 µM [activator, single point]	–
COc1ccc(N2C(=O)/C(=C\c3ccco3)N=C2SCC(=O)N(C(C)C)C(C)C)cc1Cl	–	inactive: 16.1%
O=C(O)CC/C(=C\c1cc2c(cc1Br)OCO2)c1nc2ccccc2s1	inconclusive: 20 µM [activator, single point]	–
N#Cc1c(C(F)(F)F)cc(-c2cccs2)nc1SC(C(=O)O)c1ccccc1 (configuration not stated)	inconclusive: 11.2 µM [activator, partial curve, poor fit]	–
Cc1ccc(-c2cc3nc(C)cc(C)n3n2)cc1	inconclusive: 11.2 µM [activator, partial curve, poor fit]	–
CC1(C)CC(=O)c2cc(N=C/C(C(=O)c3ccccc3)=C(\O)c3ccccc3)c(=O)oc2C1	active: 11.2 µM	–
